In all, about 33,000 sequences were measured (“E-score (-0.5 to 0.5)”: median about -0.011, highest 2% from about 0.28 on). The list shows a part of the results.

This experiment addresses T1, Gcr1 (UniProt P07261).
T1 sequence: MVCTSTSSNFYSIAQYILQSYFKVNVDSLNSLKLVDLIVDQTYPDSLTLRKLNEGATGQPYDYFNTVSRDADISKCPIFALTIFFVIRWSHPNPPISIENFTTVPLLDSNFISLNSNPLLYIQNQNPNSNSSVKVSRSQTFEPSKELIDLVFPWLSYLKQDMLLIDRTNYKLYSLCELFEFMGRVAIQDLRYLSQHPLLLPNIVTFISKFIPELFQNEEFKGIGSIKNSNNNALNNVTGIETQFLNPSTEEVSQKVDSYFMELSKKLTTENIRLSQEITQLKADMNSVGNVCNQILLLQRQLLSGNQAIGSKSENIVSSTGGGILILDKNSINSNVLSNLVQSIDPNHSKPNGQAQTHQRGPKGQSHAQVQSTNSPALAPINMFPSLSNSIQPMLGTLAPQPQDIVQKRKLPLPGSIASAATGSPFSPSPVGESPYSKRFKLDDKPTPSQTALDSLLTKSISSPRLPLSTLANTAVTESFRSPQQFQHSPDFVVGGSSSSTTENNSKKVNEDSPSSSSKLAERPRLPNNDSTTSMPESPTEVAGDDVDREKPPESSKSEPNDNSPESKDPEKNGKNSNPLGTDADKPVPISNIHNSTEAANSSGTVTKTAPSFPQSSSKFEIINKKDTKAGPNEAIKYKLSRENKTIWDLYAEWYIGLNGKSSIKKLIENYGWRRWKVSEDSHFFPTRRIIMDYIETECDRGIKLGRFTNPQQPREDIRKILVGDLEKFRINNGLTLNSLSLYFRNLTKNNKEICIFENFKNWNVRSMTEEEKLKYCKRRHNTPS
Nature of the experiment: PBM E-score (8-mer binding enrichment) (E-score (-0.5 to 0.5)); higher = stronger / more preferred TF binding; most listed sequences are background and not binding sites. To be noted: protein concentration: 100 nM; construct: GST-full length. The gist of the method: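 Universal all-10-mer Agilent arrays, fresh or stripped once, were converted to double-stranded form by primer extension. GST-tagged yeast transcription factors from PURExpress in vitro transcription/translation, full-length or DNA-binding domain only, were applied at about 100-200 nM and detected with fluorescent anti-GST. After masliner normalisation, the Universal PBM Analysis Suite scored each ungapped eight-base word together with its reverse complement by E-score.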
Take CCAACCAA: the “PBM E-score” value was 0.0612.

Regarding ACACGGCC, the “PBM E-score” value is -0.00061.

Take TCGTAAAA: the “PBM E-score” value was determined as 0.231.

Consider CCTACGAC, for which the “PBM E-score” value was -0.195.

As to CGCTGAGC, the “PBM E-score” value came to 0.0119.

Take CTATGGCA: the “PBM E-score” value was -0.0709.

As for TCATGCCA, the “PBM E-score” value is -0.148.

As to ACTAGCCG, the “PBM E-score” value is -0.0477.

For the sequence CCTCTGCA, the “PBM E-score” value is -0.0717.

Take CAGCCCTC: the “PBM E-score” value was -0.0883.

For AGGCGGTG, the “PBM E-score” value is -0.254.

In the case of TCTTTTAA, the “PBM E-score” value is 0.131.

For CCGTTGAG, the “PBM E-score” value was -0.198.

In the case of ATGGCACA, the “PBM E-score” value is -0.0956.

As for CTCTCCAA, the “PBM E-score” value is -0.0761.

As to GACCGAAA, the “PBM E-score” value was -0.204.

With GGTTTTTA, the “PBM E-score” value is -0.0336.

As to AGTTGGGC, the “PBM E-score” value was 0.0733.

Consider ACTAACTA, for which the “PBM E-score” value was -0.256.

For ATGGGCTA, the “PBM E-score” value was -0.0311.

Regarding CCGGAGGA, the “PBM E-score” value was -0.0617.

As for AAGTCTCG, the “PBM E-score” value is -0.336.

In the case of CAAAAGTA, the “PBM E-score” value was 0.0094.

For CCGCGGGA, the “PBM E-score” value turned out to be 0.117.

Take ACCGTAAG: the “PBM E-score” value was -0.0765.

For AGAACCCA, the “PBM E-score” value was determined as 0.234.

For the sequence ACACCAGT, the “PBM E-score” value was -0.145.

As for ACACAAAC, the “PBM E-score” value is 0.0411.

In the case of CCCGATGC, the “PBM E-score” value was -0.124.

As to GCCCTGGA, the “PBM E-score” value is -0.0767.

Consider GCACTGAC, for which the “PBM E-score” value is -0.0549.

As to CCACGAGA, the “PBM E-score” value is 0.0271.

As to AGTCCTCC, the “PBM E-score” value is -0.206.

Regarding CCCAGACA, the “PBM E-score” value is -0.0251.

On to CATAGGAA, for which the “PBM E-score” value came to 0.134.

GGCTATGA: the “PBM E-score” value is -0.188.

TATTTGGA: the “PBM E-score” value was determined as 0.313.

Turning to GAGGACCA, the “PBM E-score” value was -0.085.

As for GTGTGTTA, the “PBM E-score” value is -0.0104.

In the case of ATCCGTGC, the “PBM E-score” value stood at 0.0699.

Turning to AATCTAAT, the “PBM E-score” value was 0.0917.

With CGGCGGAA, the “PBM E-score” value came out at 0.148.

With ATGGACCA, the “PBM E-score” value came to 0.0665.

For the sequence CGCGCAAC, the “PBM E-score” value turned out to be 0.00246.

For ACTATCCA, the “PBM E-score” value was -0.0109.

ATAGGACA: the “PBM E-score” value is -0.127.

Take CCACGTTA: the “PBM E-score” value was -0.0265.

For AAATGGGG, the “PBM E-score” value was found to be 0.204.

As for AATTCGTC, the “PBM E-score” value is 0.037.

Turning to ATCAATAG, the “PBM E-score” value is -0.0521.

Regarding CTCCCTCA, the “PBM E-score” value is -0.0385.

In the case of AACCCTTC, the “PBM E-score” value was -0.00367.

As to CTAGAGTA, the “PBM E-score” value is -0.037.

Regarding ACGCTTGA, the “PBM E-score” value turned out to be 0.0746.

Consider ACCGCATG, for which the “PBM E-score” value is -0.164.

Take AGGCGCCG: the “PBM E-score” value came out at 0.354.

AGTGTTAC: the “PBM E-score” value was -0.114.

As to AAGGCCGT, the “PBM E-score” value is -0.115.

In the case of CTTTTAAA, the “PBM E-score” value came to 0.00459.

Take ATTACCTG: the “PBM E-score” value was -0.148.

Consider CCGCAGCA, for which the “PBM E-score” value stood at 0.114.

As to ATGGGACG, the “PBM E-score” value worked out at 0.0597.

On to CAAAGGGC, for which the “PBM E-score” value was -0.139.

On to CATGCTCG, for which the “PBM E-score” value was -0.0657.

On to AAGGCTTA, for which the “PBM E-score” value is -0.426.

As to AAATGGCA, the “PBM E-score” value came to 0.0603.

For the sequence GTAGTATA, the “PBM E-score” value amounted to 0.0704.

On to TCCGTTCA, for which the “PBM E-score” value is -0.112.

In the case of AGAGTACG, the “PBM E-score” value was -0.027.

For the sequence CCAGCCGC, the “PBM E-score” value is -0.0253.

Turning to AGATTAAA, the “PBM E-score” value is 0.137.

On to CCATTGAC, for which the “PBM E-score” value is -0.109.

Turning to ATTCTAAA, the “PBM E-score” value is 0.125.

On to GAGGGACA, for which the “PBM E-score” value was -0.0898.

On to ATGTTAAT, for which the “PBM E-score” value is 0.128.

As for ATAAGGGA, the “PBM E-score” value amounted to 0.128.

Regarding ATCGGAGC, the “PBM E-score” value is -0.0617.

CGAAGGAA: the “PBM E-score” value is -0.0303.

AACGTAAT: the “PBM E-score” value is -0.129.

On to AGGCTCGC, for which the “PBM E-score” value is -0.213.

Regarding AGAACTCA, the “PBM E-score” value is -0.0249.

As for ACCCGTAC, the “PBM E-score” value is -0.254.

With ATAAAGGC, the “PBM E-score” value stood at 0.074.

In the case of AATTAGAA, the “PBM E-score” value worked out at 0.279.

As for ACATGTCA, the “PBM E-score” value is -0.175.

For the sequence AGGCGGGC, the “PBM E-score” value was -0.112.

The values above are taken from the supplement of paper PMC3334620.
